Some of the results follow.

This is an account of results in the supplement of paper PMC11417369.

In this assay the test system is PfAP2-HC AP2 domain (GST-tagged). Kind of assay: gcPBM binding intensity (ln(normalized median fluorescence intensity)); higher = stronger DNA binding. The method in brief:
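Each value is the highest Masliner-normalised natural-log median intensity across replicate spots of either orientation of a probe. The probes were primer-extended double-stranded 36-bp intergenic genomic sequences on an Agilent 4 × 180k array, alongside negative controls, exposed for 1 h to GST-tagged P. falciparum DNA-binding domains expressed in E. coli. Bound protein was picked up with Alexa488 anti-GST antibody and scanned at 488 nm.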
On to “TATTGAAAAAATAAAAGTACAAACTCTTATAATATG [XGTACX_site8196]”, for which the “gcPBM binding intensity (ln)” value was 9.59. For the sequence “AACACATACAAACACACACACAAAAAAAAAAAAAAA [CACACA_site393]”, the “gcPBM binding intensity (ln)” value is 10.4. The same measure for “ATTATATATGTATGGTGTACTAAGAATATTTTTTTA [XGTACX_site1950]”: 9.55. For “ATTCAATATAAATACACACACACTTTTAATAATTAA [CACACA_site5963]”, the “gcPBM binding intensity (ln)” value was 10.2.

As for “ATTCACTGGTATGCATGAAAAAAAATATTATTATAA [CACACA_negctrl_site702]”, the “gcPBM binding intensity (ln)” value was 9.42. With “TATATATATTTATACACACACATATATTTATATATT [CACACA_site484]”, the “gcPBM binding intensity (ln)” value came to 9.97. With “TTATGTGTATACTAAGAACACACAAGTTACTTGGTG [CACACA_site8467]”, the “gcPBM binding intensity (ln)” value was found to be 9.86. Take “TGAATACTTATGTTCGCACACATGCAAATTAAAAAA [CACACA_site4048]”: the “gcPBM binding intensity (ln)” value came to 9.8. Consider “ATTTTGATAACCGTACGTACATATATATATATATAT [XGTACX_site6605]”, for which the “gcPBM binding intensity (ln)” value turned out to be 9.95. In the case of “AAAAAAACGATCGATCGTACTTATATTTACACATTC [XGTACX_site2883]” it was 9.74; in that of “ACATTCAATAAACGTCGTACACTTTCCTTTTTATGA [XGTACX_site3274]”, 9.72; in that of “ACATGGTGATAATACTGTACAAAAATAAATAAATAC [XGTACX_site897]”, 10.2.

Take “TTATTTTTCTAAAAAGCATGCAAATAAAGATATGAA [TGCATGCA_site1032]”: the “gcPBM binding intensity (ln)” value was found to be 9.39. In the case of “TTGTTTGGTTATAATTGTACGCATGTAATTACATAT [XGTACX_site4972]”, the “gcPBM binding intensity (ln)” value was 9.84. For “TTTTATAGTCTTATGGGTACAAAATATTAACCCACG [XGTACX_site1131]”, the “gcPBM binding intensity (ln)” value was determined as 9.37. In the case of “ATATATATTTTATTATGTACTTACTTCTTTTCTTAA [XGTACX_site6163]” it was 9.79; in that of “TAGACTCCCAGACACACACACACACCCATATAATAT [CACACA_site593]”, 10.5.

As for “TTTTTTTTTTTTGGTGCATGCACATTTTGTTTTTTT [TGCATGCA_site570]”, the “gcPBM binding intensity (ln)” value turned out to be 9.95. For the sequence “TATTATTATTGTTGATGTACATTTAATATAATATAT [XGTACX_site4482]”, the “gcPBM binding intensity (ln)” value was 9.64. As for “TTTAATATATATATGTGTACATATAAATTATATATA [XGTACX_site8511]”, the “gcPBM binding intensity (ln)” value came to 9.49. In the case of “TTTATATTTTAAAAAATAATATTATGTATTTTTAAA [TGCATGCA_negctrl_site507]” it was 9.22; in that of “GTACTTATTAAATGTGCATGTTGATATATAAATGTA [TGCATGCA_site902]”, 9.6.

For “ATATAATAAACGTGTACACAATTAAATTATTATATA [CACACA_site5017]”, the “gcPBM binding intensity (ln)” value stood at 9.69. With “ATATACATAAAAATATGTACATATAAAATATATACA [XGTACX_site2394]”, the “gcPBM binding intensity (ln)” value is 9.7. Turning to “TTATTAAAAATGTATTGTACAAATTTATTAGTAAAT [XGTACX_site4799]”, the “gcPBM binding intensity (ln)” value stood at 9.32.

As for “ATTTATACAAAGCTTCGTACATAATGTATTCTTTTT [XGTACX_site2166]”, the “gcPBM binding intensity (ln)” value amounted to 9.83.

Turning to “TTTTAATTGTTTATTTGTACATATGTTTAATTATAT [XGTACX_site571]”, the “gcPBM binding intensity (ln)” value is 10.1.

As for “TTTTTAAAAAAATTGATTCTTTTTCTTTTTTTTCTT [XGTACX_negctrl_site127]”, the “gcPBM binding intensity (ln)” value amounted to 9.36. On to “TTTTTTGCTTGGGTGAGAAAAAATAAAATAAAGGAA [TGCATGCA_negctrl_site139]”, for which the “gcPBM binding intensity (ln)” value is 9.09. Take “TTATAATCTTTTGGTTCTATAGAATATCAAAAAATA [CACACA_negctrl_site1149]”: the “gcPBM binding intensity (ln)” value came out at 9.29. Regarding “AAAAAATAAAAGGAAAAAAAAAAAAAAAAAAAAAAT [CACACA_negctrl_site635]”, the “gcPBM binding intensity (ln)” value was 9.56. As to “TATTATTGTCATTTTTTTTTTTTTTTTTTCTATTTC [XGTACX_negctrl_site114]”, the “gcPBM binding intensity (ln)” value is 9.53. Consider “TTTTGCGAAAAAAGGTGTACTGTAAATATATTGAGG [XGTACX_site8941]”, for which the “gcPBM binding intensity (ln)” value came to 9.43. “AGCACCCACCAACACACACACACACCCACCCACCGA [CACACA_site368]”: the “gcPBM binding intensity (ln)” value worked out at 11.2. The same measure for “AAATAAATAAATATACGTACATATATATAATATATA [XGTACX_site5124]”: 9.78; for “TTTTTTTTTAATTACATAAAATAAAAATATTTCTAT [CACACA_negctrl_site584]”: 9.38; for “TTAATATGTTTAACCATTTTACATAAATTGATTTGT [CACACA_negctrl_site1100]”: 9.82.

On to TTTTTTTTGATTTGTTTGCACTTATTTCCACAATAA, for which the “gcPBM binding intensity (ln)” value stood at 9.68.

Turning to “TACGTAAATTTTAATACACACTATAGGATATTCTGC [CACACA_site5418]”, the “gcPBM binding intensity (ln)” value was found to be 9.58. On to “TTGTATCTTCATTTTATCAGAAAAAAAAAAAAAAAT [CACACA_negctrl_site775]”, for which the “gcPBM binding intensity (ln)” value was 9.24. “ATATATATATATAGGGGTACTTAAATTTTACTAACC [XGTACX_site1832]”: the “gcPBM binding intensity (ln)” value was 9.74. As for “ATTTTATTTATATACACACACATATATATATTATAT [CACACA_site822]”, the “gcPBM binding intensity (ln)” value was 10.1.

With “AAAGGGTTACAAGAGGAACACACAAAAAAATAAATA [CACACA_site8406]”, the “gcPBM binding intensity (ln)” value turned out to be 10.1. As to “AATAAATAAATAAATTAATATATATATATATATAGA [CACACA_negctrl_site1661]”, the “gcPBM binding intensity (ln)” value stood at 9.66. The same measure for “TCATATAAAACATGCACACATATGTACTCTTATAAA [CACACA_site3748]”: 9.75. For the sequence “TTTATTAATGGACACACACACACACCCAAAATAAAA [CACACA_site4294]”, the “gcPBM binding intensity (ln)” value worked out at 10.5. On to “TATATTTATATATGTTGTACTCTCCAATAATATTCC [XGTACX_site4438]”, for which the “gcPBM binding intensity (ln)” value came to 9.62. Consider “TATATATTTATATTTACACACAGTTACTATGTAGAT [CACACA_site3292]”, for which the “gcPBM binding intensity (ln)” value was determined as 9.92. Regarding “ATTAAATGATCAAGGTGTACATTAACAAGAACTATA [XGTACX_site7022]”, the “gcPBM binding intensity (ln)” value came to 9.72. With “TGAATAAAAAAACCTAGTACTTAAATAAGTATATTT [XGTACX_site7690]”, the “gcPBM binding intensity (ln)” value was 9.69. Turning to “TATATATATACATACGTACACACAAATATTAAAATA [CACACA_site1950]”, the “gcPBM binding intensity (ln)” value was determined as 9.88. As to “TAAAAAAAATAGAAACGTACATAAAAAATAAATAAT [XGTACX_site5796]”, the “gcPBM binding intensity (ln)” value was found to be 10.2. For the sequence “TAGATAAAATTAAAATGTACAAACCTTTTCCCTTAT [XGTACX_site1136]”, the “gcPBM binding intensity (ln)” value came to 9.54. Consider “ATATATATATATATATGTACTTATTTATTTTATATA [XGTACX_site8810]”, for which the “gcPBM binding intensity (ln)” value was determined as 9.54.

Regarding “TTTTTTTTATCAAATTGTACATATACAAAGGTGATC [XGTACX_site8054]”, the “gcPBM binding intensity (ln)” value stood at 9.41. Consider “ATTTTATTTTTTAATAGTACTCATTTTTTATGTGAA [XGTACX_site5494]”, for which the “gcPBM binding intensity (ln)” value worked out at 9.59.
